Test results published in PubChem BioAssay AID1345083 (National Center for Advancing Translational Sciences (NCATS), 2018).
Hit rate of the full screen: of about 94,000 compounds, about 6,200 (6.6%) were called active. The inconclusive results got no clear call from the source; some entries with a clear call stand among them for comparison. Calls come from the whole dose curve; as a rule, active = well fitted inhibition curve with a large enough effect; inconclusive = small, poorly fitted or top-dose-only effect; inactive = flat fitted curve, though single readings scatter. Where the call is inconclusive, the potency comes from a doubtful curve fit.

test: Cytotoxic Profiling in HEK 293 Cell Line of Diverse Libraries Using Quantitative High-Throughput Screening; conditions: HEK 293 viability, ATP luminescence (CellTiter-Glo), 48-72 h; activity change, negative = cytotoxicity: at 115 µM (top of the series) unless noted; series mostly up to 115 µM; note: nearly all actives have a fitted effect of over 60% in size
Procedure, shortened: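 Cytotoxicity was scored by loss of ATP-coupled luminescence (CellTiter-Glo) in HEK 293 cells. Compound treatment ran 48 or 72 hr at 37 degree Celsius, 5% CO2, 95% humidity.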
% is set by controls: 0 for no effect and ±100 for the full control effect; potency is the fitted concentration of half-maximal effect; tags give direction and shape of the fitted curve.

Row | Compound | Potency | activity change, negative = cytotoxicity | outcome
1 | O=C(NCc1ccccc1Cl)C1CCN(C(=O)c2ccc(-c3cncnc3)cc2)CC1 | inconclusive: 89.1 µM [inhibitor, single point] |  | 
2 | Cc1cc2nc3n(c(=O)c2n1CC(=O)NCCc1ccc(Cl)cc1)CCCCC3 | inconclusive: 89.1 µM [inhibitor, single point] |  | 
3 | COc1ccc(-c2cccc(CN)c2)cc1 | inconclusive: 112 µM [inhibitor, single point] |  | 
4 | CC(=O)N1CCC(C2CCN(C(=O)c3cccc(C#N)c3)C2)CC1 (centres undefined) |  | inactive: 1.69% | 
5 | COc1ccccc1Nc1ccnc(N2CCCC(C(=O)NCCc3ccc(F)cc3)C2)n1 (centres undefined) | inconclusive: 35.5 µM [inhibitor, partial curve, poor fit] |  | 
6 | COc1ccc(Cc2nnc3ccc(C(=O)N4CCN(Cc5ccccc5)CC4)cn23)cc1 | inconclusive: 100 µM [inhibitor, single point] |  | 
7 | Cc1noc(-c2cn(C3CCN(C(=O)Cc4cccc(Cl)c4)CC3)nn2)n1 |  | inactive: -29.2% | 
8 | O=C(Nc1cccc(C(F)(F)F)c1)N[C@H]1CO[C@H]2[C@@H]1OC[C@@H]2n1cc(-c2ccccn2)nn1 | inconclusive: 70.8 µM [inhibitor, partial curve] |  | 
9 | Cc1cc2nc3n(c(=O)c2n1CC(=O)Nc1cccc(Cl)c1)CCC3 |  | inactive: -23.8% | 
10 | CCC(C(=O)N1CCN(c2cc(C(F)(F)F)ncn2)CC1)c1ccccc1 (centres undefined) | inconclusive: 50.1 µM [inhibitor, partial curve, poor fit] |  | 
11 | CCOc1ccccc1CCCN1CC2(CCNCC2)CCC1=O | inconclusive: 8.91 µM [inhibitor, partial curve, poor fit] |  | 
12 | O=C(c1ccc(C(F)(F)F)cc1)N1CCC2(C1)C(=NC1CCCCC1)NC(=O)N2c1cccnc1 (centres undefined) |  |  | inactive
13 | Cn1cccc1C(=O)N1CCC(n2cc(-c3nc(C4CC4)no3)nn2)C1 (centres undefined) |  | inactive: -19.7% | 
14 | Cc1ccc2nc(C3CCN(Cc4cccc(-c5ccsc5)c4)CC3)[nH]c(=O)c2c1 | inconclusive: 3.55 µM [inhibitor, full curve, poor fit] |  | 
15 | COc1ccc(-c2cc(N3CCCN(C(=O)c4cnccn4)CC3)n[nH]2)cc1 | inconclusive: 70.8 µM [inhibitor, partial curve, poor fit] |  | 
16 | O=c1n(-c2ccc(F)cc2F)nc2n1CCN(Cc1ccccc1)C2 | active: 3.16 µM |  | 
17 | Cc1cnc(CCNC(=O)Cn2c(=O)oc3ccccc32)n1C1CCC1 |  | inactive: -2.62% | 
18 | OCCC1CN(Cc2cccn2-c2nccs2)CCN1Cc1ccc(F)c(F)c1 (centres undefined) | inconclusive: 56.2 µM [inhibitor, partial curve, poor fit] |  | 
19 | Cc1nn(-c2ccccc2)c2c1C(C1CC1)N(C1CN(C(=O)c3cccc(Cl)c3)C1)C2=O (centres undefined) |  | inactive: -22.8% | 
20 | Cc1ccccc1CN1Cc2nc(-c3c(C)noc3C)ccc2OCC1=O | inconclusive: 79.4 µM [inhibitor, partial curve] |  | 

Row | Compound | Potency | activity change, negative = cytotoxicity | outcome
21 | CC(C)CC(=O)N1C[C@H](C(N)=O)[C@H]2c3ccccc3N(C)C(=O)[C@]21C | inconclusive: 44.7 µM [inhibitor, partial curve, poor fit] |  | 
22 | Cc1nc(N(C)C)ncc1C(=O)NC(C(=O)O)c1c(C)n[nH]c1C (centres undefined) | inconclusive: 28.2 µM [inhibitor, partial curve, poor fit] |  | 
23 | CCCCn1c(CN(C)Cc2[nH]c3ccccc3c2C)cnc1S(=O)(=O)CC | inconclusive: 50.1 µM [inhibitor, partial curve, poor fit] |  | 
24 | Cc1nc(-c2c3n(c(=O)n(CC(=O)Nc4cc(Cl)ccc4C)c2=O)CCCCC3)no1 | inconclusive: 79.4 µM [inhibitor, partial curve, poor fit] |  | 
25 | COc1cccc(-c2cccc(C(=O)N3CCN(C(=O)NC4CCCC4)CC3)c2)c1 | inconclusive: 39.8 µM [inhibitor, full curve, poor fit] |  | 
26 | O=C(c1ccc(Cl)nc1)N1CCC2(CC1)C(=O)NCN2Cc1ccc(Cl)cc1 | inconclusive: 89.1 µM [inhibitor, partial curve, poor fit] |  | 
27 | COc1ncccc1-c1nccc2c(=O)cc(N3CCOCC3)oc12 | inconclusive: 50.1 µM [inhibitor, partial curve, poor fit] |  | 
28 | O=C1CCN(CC(O)Cc2ccccc2)c2ccsc2CN1Cc1ccccc1 (centres undefined) |  | inactive: -17.6% | 
29 | Cc1nc(-c2cnccn2)n(CC(=O)Nc2cccc(Cl)c2)c(=O)c1C | inconclusive: 44.7 µM [inhibitor, partial curve] |  | 
30 | COC[C@@H]1CN(C(=O)c2cccc(C#N)c2)C[C@H]1c1nc(C2CC2)no1 | inconclusive: 39.8 µM [inhibitor, partial curve, poor fit] |  | 
31 | CN(Cc1cc(C[C@H]2CNCC[C@H]2CC(=O)N2CCN(c3ccccc3)CC2)no1)c1ccccc1 | inconclusive: 50.1 µM [inhibitor, partial curve, poor fit] |  | 
32 | O=C(CC1CCCCN(Cc2ccccc2)C1=O)Nc1ccc(F)cc1F (centres undefined) | inconclusive: 89.1 µM [inhibitor, single point] |  | 
33 | COc1ccc(NC(=O)N2Cc3[nH]cnc3C[C@H]2c2nc(-c3ccccc3)no2)cc1 | inconclusive: 100 µM [inhibitor, partial curve, poor fit] |  | 
34 | CC(C)CNC(=O)C1c2ccccc2C(=O)N(C2CCCC2)C12CCCC2 (centres undefined) | inconclusive: 89.1 µM [inhibitor, single point] |  | 
35 | CCCCn1c(=O)c(C(=O)NCCOC)nc2cccnc21 |  | inactive: -0.92% [at 172 µM] | 
36 | CN1CCN(C(=O)CCC[C@@H]2[C@H]3CCCN4CCC[C@@H](CN2Cc2ccccc2)[C@@H]34)CC1 |  | inactive: -28.8% | 
37 | O=C(Nc1cccc(Cl)c1)C1CCN(c2cc(C(F)(F)F)ncn2)CC1 | inconclusive: 56.2 µM [inhibitor, partial curve, poor fit] |  | 
38 | COc1ccccc1-c1cc2c(ccn2Cc2ccncc2)c(N2CCOCC2)n1 | inconclusive: 35.5 µM [inhibitor, partial curve, poor fit] |  | 
39 | O=[S+]1([O-])NC2(CCCN(Cc3ccc(C(F)(F)F)cc3)C2)COc2ccccc21 (centres undefined) | inconclusive: 79.4 µM [inhibitor, partial curve, poor fit] |  | 
